Laboratory results from the supplement of paper PMC10126150.
Values marked as one replicate rest on one cluster of the flow cell; about a third of the high ones do not repeat.

Tested on: ATP
Assay: switch fluorescence ratio, 500 uM ATP over buffer (Cy3 cluster intensity, sum of 5 cycles each) (fold (ratio)); higher = stronger signal-on switching upon ATP binding; sequences stand for … in TCGTCGGCAGCGTCAGATGTGTATAAGAGACAGTTTTTTTTTTTTTTTTTTTTTTTTT…TC
Details: aptamer strand: ATP DNA aptamer (quencher-CACCTGGGGGAGTATTGCGGAGGAAGG + anchor), 100 nM annealed; ATP concentration: 500 uM; one replicate
How it was run: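 Five buffer/ATP imaging cycles were run on Cy3-labelled switching-strand clusters on a modified Illumina MiSeq flow-cell, with NaOH stripping and re-annealing between cycles. In each cycle, clusters annealed to 100 nM quencher-labelled ATP aptamer were imaged in selection buffer, then after 15 min with 500 uM ATP at 22 °C. Per cluster, the fluorescence ratio is summed target-cycle over summed buffer-cycle Cy3 intensity, averaged per switch-domain sequence. Only clusters within 100-1000 RFU were kept.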
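Note: ATP exposure 15 min at 22 °C before imaging.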

**Q.** With ATGGGTAGAA as the sequence, how does the switch fluorescence ratio read?
**A.** 1.04

**Q.** For ATGGGTCGC, which switch fluorescence ratio is on record?
**A.** 0.97

**Q.** With ATGGGTGGGA as the sequence, how does the switch fluorescence ratio read?
**A.** 1.02

**Q.** For ATGGGTTCTC, which switch fluorescence ratio is on record?
**A.** 0.96

**Q.** For ATGGGTTTTG, which switch fluorescence ratio is on record?
**A.** 1.01

**Q.** With ATGGTCACGA as the sequence, how does the switch fluorescence ratio read?
**A.** 0.99

**Q.** Which switch fluorescence ratio does the source give for ATGGTCCTG here?
**A.** 1.01

**Q.** How did the switch fluorescence ratio turn out when ATGGTCGATT was run?
**A.** 0.972

**Q.** For ATGGTCGTTC, which switch fluorescence ratio is on record?
**A.** 0.978

**Q.** ATGGTGATTA was tested. Which switch fluorescence ratio did it give?
**A.** 1.02

**Q.** How did the switch fluorescence ratio turn out when ATGGTGGGA was run?
**A.** 1.01

**Q.** Which switch fluorescence ratio does the source give for ATGGTTTGTT here?
**A.** 1.03

**Q.** ATGTAAGCGA was tested. Which switch fluorescence ratio did it give?
**A.** 1.02

**Q.** With ATGTAATTCT as the sequence, how does the switch fluorescence ratio read?
**A.** 1.01

**Q.** ATGTACAATC was tested. Which switch fluorescence ratio did it give?
**A.** 1.14

**Q.** For ATGTACAGTG, which switch fluorescence ratio is on record?
**A.** 1

**Q.** Which switch fluorescence ratio does the source give for ATGTACGC here?
**A.** 1.04

**Q.** With ATGTACTTAA as the sequence, how does the switch fluorescence ratio read?
**A.** 1.04

**Q.** Which switch fluorescence ratio does the source give for ATGTAGCCGG here?
**A.** 1.01

**Q.** How did the switch fluorescence ratio turn out when ATGTAGGAGG was run?
**A.** 1.02

**Q.** ATGTATATA was tested. Which switch fluorescence ratio did it give?
**A.** 1.01

**Q.** Which switch fluorescence ratio does the source give for ATGTATTGCT here?
**A.** 0.99

**Q.** How did the switch fluorescence ratio turn out when ATGTCACGGC was run?
**A.** 1.03

**Q.** Which switch fluorescence ratio does the source give for ATGTCAGTGC here?
**A.** 0.958

**Q.** How did the switch fluorescence ratio turn out when ATGTCCGATC was run?
**A.** 1.03

**Q.** Which switch fluorescence ratio does the source give for ATGTCCGGAC here?
**A.** 0.994

**Q.** Which switch fluorescence ratio does the source give for ATGTCGGTCC here?
**A.** 0.995

**Q.** ATGTCTCAT was tested. Which switch fluorescence ratio did it give?
**A.** 0.983

**Q.** ATGTCTTCGT was tested. Which switch fluorescence ratio did it give?
**A.** 0.997

**Q.** With ATGTGAAGAC as the sequence, how does the switch fluorescence ratio read?
**A.** 1.01

**Q.** How did the switch fluorescence ratio turn out when ATGTGGCGGA was run?
**A.** 1.05

**Q.** For ATGTGGGACA, which switch fluorescence ratio is on record?
**A.** 1.07

**Q.** Which switch fluorescence ratio does the source give for ATGTGGTGGG here?
**A.** 1.1

**Q.** With ATGTGTAGAC as the sequence, how does the switch fluorescence ratio read?
**A.** 1.01

**Q.** Which switch fluorescence ratio does the source give for ATGTGTCGAT here?
**A.** 1.04

**Q.** For ATGTGTTGCC, which switch fluorescence ratio is on record?
**A.** 0.978

**Q.** ATGTTAACAA was tested. Which switch fluorescence ratio did it give?
**A.** 0.972

**Q.** How did the switch fluorescence ratio turn out when ATGTTACCTT was run?
**A.** 1.12

**Q.** How did the switch fluorescence ratio turn out when ATGTTAGCGG was run?
**A.** 1.03

**Q.** With ATGTTATCGT as the sequence, how does the switch fluorescence ratio read?
**A.** 1.02

**Q.** How did the switch fluorescence ratio turn out when ATGTTCGAAT was run?
**A.** 0.972

**Q.** Which switch fluorescence ratio does the source give for ATGTTCGTAC here?
**A.** 0.968

**Q.** How did the switch fluorescence ratio turn out when ATGTTCGTCG was run?
**A.** 0.968

**Q.** ATGTTGTCCG was tested. Which switch fluorescence ratio did it give?
**A.** 0.93

**Q.** With ATGTTGTGGA as the sequence, how does the switch fluorescence ratio read?
**A.** 0.961

**Q.** For ATGTTGTGGC, which switch fluorescence ratio is on record?
**A.** 1.2

**Q.** ATGTTGTGTC was tested. Which switch fluorescence ratio did it give?
**A.** 0.907

**Q.** For ATGTTTAACC, which switch fluorescence ratio is on record?
**A.** 0.999

**Q.** Which switch fluorescence ratio does the source give for ATGTTTAGC here?
**A.** 0.992

**Q.** How did the switch fluorescence ratio turn out when ATGTTTCTAA was run?
**A.** 1.09

**Q.** How did the switch fluorescence ratio turn out when ATTAAACTGG was run?
**A.** 0.925

**Q.** For ATTAAAGATC, which switch fluorescence ratio is on record?
**A.** 1.02

**Q.** ATTAAAGCT was tested. Which switch fluorescence ratio did it give?
**A.** 1.17

**Q.** With ATTAAAGGCT as the sequence, how does the switch fluorescence ratio read?
**A.** 1.01

**Q.** ATTAACATGG was tested. Which switch fluorescence ratio did it give?
**A.** 1.02

**Q.** How did the switch fluorescence ratio turn out when ATTAACCGGT was run?
**A.** 1.09

**Q.** For ATTAACGTTA, which switch fluorescence ratio is on record?
**A.** 1.05

**Q.** With ATTAATAGT as the sequence, how does the switch fluorescence ratio read?
**A.** 0.986

**Q.** For ATTAATCAGG, which switch fluorescence ratio is on record?
**A.** 1.03

**Q.** ATTAATCTGG was tested. Which switch fluorescence ratio did it give?
**A.** 1.01

**Q.** With ATTACAAACT as the sequence, how does the switch fluorescence ratio read?
**A.** 1.15

**Q.** Which switch fluorescence ratio does the source give for ATTACACTGT here?
**A.** 1.03

**Q.** ATTACATGCA was tested. Which switch fluorescence ratio did it give?
**A.** 1.02

**Q.** ATTACGCGGG was tested. Which switch fluorescence ratio did it give?
**A.** 1.03

**Q.** For ATTACTGCG, which switch fluorescence ratio is on record?
**A.** 1.03

**Q.** For ATTAGATGTG, which switch fluorescence ratio is on record?
**A.** 0.993

**Q.** With ATTAGCACGC as the sequence, how does the switch fluorescence ratio read?
**A.** 1.04

**Q.** For ATTAGCCGCA, which switch fluorescence ratio is on record?
**A.** 1.09

**Q.** Which switch fluorescence ratio does the source give for ATTAGCCTGT here?
**A.** 1.02

**Q.** Which switch fluorescence ratio does the source give for ATTAGCGGCG here?
**A.** 0.956

**Q.** ATTAGGTCC was tested. Which switch fluorescence ratio did it give?
**A.** 0.985

**Q.** With ATTAGGTGG as the sequence, how does the switch fluorescence ratio read?
**A.** 1.08

**Q.** How did the switch fluorescence ratio turn out when ATTAGTTTGC was run?
**A.** 0.979

**Q.** How did the switch fluorescence ratio turn out when ATTATACAGA was run?
**A.** 1.03

**Q.** For ATTATGAGAG, which switch fluorescence ratio is on record?
**A.** 0.961

**Q.** For ATTATGCCGC, which switch fluorescence ratio is on record?
**A.** 1.19

**Q.** How did the switch fluorescence ratio turn out when ATTATGGCTT was run?
**A.** 1

**Q.** For ATTATTCGG, which switch fluorescence ratio is on record?
**A.** 1.01

**Q.** How did the switch fluorescence ratio turn out when ATTATTTGCG was run?
**A.** 1.04

**Q.** ATTCAACGAT was tested. Which switch fluorescence ratio did it give?
**A.** 1.04

**Q.** Which switch fluorescence ratio does the source give for ATTCAACTTC here?
**A.** 0.999

**Q.** For ATTCAACTTG, which switch fluorescence ratio is on record?
**A.** 1.26

**Q.** ATTCACCCCC was tested. Which switch fluorescence ratio did it give?
**A.** 1.3

**Q.** For ATTCACGGTA, which switch fluorescence ratio is on record?
**A.** 1.12

**Q.** For ATTCAGAAAT, which switch fluorescence ratio is on record?
**A.** 0.961

**Q.** With ATTCAGTGCG as the sequence, how does the switch fluorescence ratio read?
**A.** 1.01

**Q.** How did the switch fluorescence ratio turn out when ATTCATAACG was run?
**A.** 1

**Q.** Which switch fluorescence ratio does the source give for ATTCATAGAT here?
**A.** 0.948

**Q.** ATTCATAGCT was tested. Which switch fluorescence ratio did it give?
**A.** 1

**Q.** For ATTCATCCTT, which switch fluorescence ratio is on record?
**A.** 0.979

**Q.** ATTCCAGTAT was tested. Which switch fluorescence ratio did it give?
**A.** 1.03

**Q.** Which switch fluorescence ratio does the source give for ATTCCATGTC here?
**A.** 1.08

**Q.** Which switch fluorescence ratio does the source give for ATTCCCAGT here?
**A.** 0.994

**Q.** How did the switch fluorescence ratio turn out when ATTCCCTGCC was run?
**A.** 1.3

**Q.** ATTCCTACTA was tested. Which switch fluorescence ratio did it give?
**A.** 1.07

**Q.** ATTCCTGAAA was tested. Which switch fluorescence ratio did it give?
**A.** 0.981

**Q.** With ATTCCTGACG as the sequence, how does the switch fluorescence ratio read?
**A.** 1.13

**Q.** For ATTCCTTATC, which switch fluorescence ratio is on record?
**A.** 1.05

**Q.** With ATTCGAGGAG as the sequence, how does the switch fluorescence ratio read?
**A.** 0.989

**Q.** For ATTCGAGGGA, which switch fluorescence ratio is on record?
**A.** 0.984

**Q.** How did the switch fluorescence ratio turn out when ATTCGATAT was run?
**A.** 1.01
